From PubChem BioAssay AID1508623 (National Center for Advancing Translational Sciences (NCATS), 2021)
The campaign covered roughly 48,000 compounds. About 450 (0.94%) were called active. Not shown: some 19% with an inconclusive outcome. The call rests on the fitted dose curve; in most records, active means well fitted inhibition curve with a large enough effect; inconclusive means small, poorly fitted or top-dose-only effect; inactive means no such curve, though single readings can be large or run the other way. The list shows a part of the results.

Assay: Primary qHTS for Identification of Small Molecule Inhibitors of Huntingtin Promoter Activity; further: nearly all actives have a fitted effect of over 50% in size
Settings: HEK293 HTT promoter firefly luciferase reporter (activity 0% = vehicle and -100% = no light), 24 h; series mostly up to 57.5 µM; activity change, negative = inhibition: at the top concentration
Summary of the method: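 Firefly luciferase readout (Dual-Glo, 10 min RT) after 24 h, 37 °C compound exposure (final up to 57.5 uM) of HEK293 reporter cells cultured 24 h beforehand; PTC124 at 50 uM final as control inhibitor; activity scaled vehicle 0%, zero RLU -100%.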
Potency means the concentration at half of the fitted maximal effect.

Row | SMILES | activity change, negative = inhibition | Potency
1 | O=C(CN1C(=O)COc2ccc(S(=O)(=O)N3CCCCCC3)cc21)N1CCN(c2ccccc2)CC1 | inactive: -13.4% | –
2 | COCCNC(=O)Cn1c(=O)n(-c2ccc(C)c(C)c2)c(=O)c2c3c(sc21)CCCCC3 | inactive: -10.3% | –
3 | COc1ccc(NC(=O)CN2CCN(S(=O)(=O)c3ccc(Br)cc3)CC2)cc1 | inactive: -36.6% | –
4 | COc1ccc(Cl)cc1NC(=O)C(C)N1Cc2ccccc2C1=O (configuration not stated) | inactive: -17.9% | –
5 | CCOc1cc(CNC(=O)C(NS(=O)(=O)c2cccs2)C(C)C)cc(OCC)c1OCC (configuration not stated) | inactive: -13.8% | –
6 | O=C(Cn1c(SCc2cccc(F)c2)nc2ccncc21)Nc1ccc(Cl)cc1F | inactive: -18.6% | –
7 | COc1ccc(NCc2cccn2-c2nnc(N3CCOCC3)s2)c(OC)c1 | inactive: 5.65% | –
8 | COc1ccc(C(=O)Nc2ccc3nc(N4CCCCC4)cc(C)c3c2)c(OC)c1 | inactive: 1.07% | –
9 | Cc1cn2c(=O)cc(COc3cccc(NC(=O)c4cccc(F)c4)c3)nc2s1 | inactive: -4.96% | –
10 | COc1ccc(N2CCN(S(=O)(=O)CCNC(=O)Cc3ccc(-c4ccccc4)cc3)CC2)cc1 | inactive: -27.8% | –
11 | CCOc1ccccc1CNC(=O)c1cccc(NC(=O)c2nsc3ccccc23)c1 | inactive: 16.1% | –
12 | Cc1ccc(S(=O)(=O)c2cnc(SCC(=O)Nc3cccc(Cl)c3)nc2N)cc1C | inactive: -13.4% | –
13 | CCN(CC)C(=O)Cn1cc(SCC(=O)Nc2cccc(F)c2)c2ccccc21 | inactive: -10.3% | –
14 | COc1ccc(C(CC(=O)O)NC(=O)c2cc3ccccc3oc2=O)cc1OC (configuration not stated) | inactive: -1.85% | –
15 | Cc1cccc(Cn2c(=O)n(Cc3ccc(C(=O)NC4CCN(Cc5ccccc5)CC4)cc3)c(=O)c3ccccc32)c1 | inactive: -11.5% | –
16 | Oc1ccc(Nc2nc3ccccc3n3cnnc23)cc1 | inactive: 21.3% | –
17 | CCOC(=O)c1cnc2c(C)cc(C)cc2c1Nc1cccc(C(=O)O)c1 | inactive: -26.6% | –
18 | CCOCCCNC(=O)CN1C(=O)COc2ccc(S(=O)(=O)N3CCCCCC3)cc21 | inactive: -7.76% | –
19 | O=C(Nc1cccc2cccnc12)c1ccccc1[N+](=O)[O-] | inactive: 23.5% | –
20 | CC(=O)c1ccc(N2CCN(c3ccc(NC(=O)c4cccs4)cc3C(=O)O)CC2)cc1 | inactive: -9.4% | –
21 | Cc1ccc(-n2ncc(C(=O)NCCCN3CCCCC3)c2C2CCN(C(=O)OC(C)(C)C)CC2)c(C)c1 | inactive: -16.2% | –
22 | Cc1ccc(NC(=O)CSc2nnc3nc(C)cc(C)n23)cc1 | inactive: -18.5% | –
23 | CCc1cccc(C)c1NC(=O)CCCn1c(=O)c2cccn2c2cccnc21 | inactive: 4.64% | –
24 | CCOC(=O)c1ccccc1NC(=O)NC(C)c1c(-n2cccc2)sc(C)c1C (configuration not stated) | inactive: -25.6% | –
25 | Cc1ccc(C)c(NC(=O)CN2C(=O)c3cccc4cccc2c34)c1 | inactive: -17.2% | –

Row | SMILES | activity change, negative = inhibition | Potency
26 | O=c1c2ccccc2n2c(-c3ccccc3O)nnc2n1Cc1ccc(F)cc1 | inactive: -16.7% | –
27 | Cc1cccc(Cn2ccn(Cc3ccc(Cl)cc3)c(=O)c2=O)c1 | inactive: 1.58% | –
28 | CCN(CC)C(=O)c1sc(NC(=O)c2nc3ncccn3n2)c(C(=O)OC)c1C | inactive: -18% | –
29 | CCCCCC(=O)N1c2ccccc2C(C)(c2ccccc2)CC1(C)C (configuration not stated) | inactive: -15.6% | –
30 | Nc1[nH]nc2nnc(-c3c(-c4ccccc4)nn4ccccc34)cc12 | inactive: -2.57% | –
31 | O=C(c1ccccc1Br)N(Cc1ccco1)C1CCS(=O)(=O)C1 (configuration not stated) | inactive: -0.483% | –
32 | CCC(Sc1nc2c(sc3ccccc32)c(=O)n1CCc1ccccc1)C(=O)N(CC)CC (configuration not stated) | inactive: -2.02% | –
33 | COc1cccc(CCNC(=O)Cn2c(-c3cccs3)cc3ccccc32)c1 | inactive: -26.6% | –
34 | COc1ccc(Cn2c(C(=O)O)c(CNCC(C)c3ccccc3)c3ccc(OC)cc32)cc1 (configuration not stated) | inactive: -31.7% | –
35 | COc1ccc(NC(=O)CN2C(=O)C(c3ccc(C(C)(C)C)cc3)=NC2(C)C)cc1Cl | inactive: 4.88% | –
36 | COc1ccccc1N1CCN(C(=O)C2CCN(S(=O)(=O)c3c(C)noc3/C=C/c3ccc(C)cc3)CC2)CC1 | inactive: -13.4% | –
37 | CCCCn1c(SCC(=O)Nc2cccc(OC)c2)nc2c(sc3ccccc32)c1=O | inactive: -12.4% | –
38 | Cc1cccc(Cc2cnc(NC(=O)C3Cc4ccc(C)cc4C(=O)O3)s2)c1 (configuration not stated) | inactive: -4.63% | –
39 | Cc1cc(C)cc(-n2c(SCC(=O)NCc3ccco3)nc3c([nH]c4ccccc43)c2=O)c1 | inactive: -12.4% | –
40 | CC(C)NC(=O)CCn1c(SCc2c(F)cccc2Cl)nc2c(sc3ccccc32)c1=O | inactive: 1.09% | –
41 | COc1ccc(NC(=O)NCCc2c(C)nn(C)c2C)c(OC)c1 | inactive: -0.627% | –
42 | Cc1nnc2c(N3CCN(c4ccccc4F)CC3)nc3ccccc3n12 | inactive: -7.84% | –
43 | Cc1cc(-n2c(SCC(=O)NCc3ccccc3)nc3ccsc3c2=O)ccc1Cl | inactive: -14.8% | –
44 | Cc1ccc(-n2nnc(-c3nsc(NC(=O)c4ccccc4)n3)c2C)cc1 | inactive: 4.96% | –
45 | Cc1ccc(-n2nc3ccc(NC(=O)c4oc5ccc(C)cc5c4C)cc3n2)cc1 | inactive: 6.94% | –
46 | CCOc1ccc(OCC(=O)NCCS(=O)(=O)N2CCN(c3ccc(F)cc3)CC2)cc1 | inactive: -27.5% | –
47 | CCOC(=O)n1ccn(C)c1=S | inactive: -2.64% | –
48 | CCCOc1ccccc1C(=O)N1CCCCC1CCN1CCOCC1 (configuration not stated) | inactive: -4.79% | –
49 | CCN(C(=O)Cn1ncc2c(=O)oc3ccc(C)cc3c21)c1cc(OC)ccc1OC | inactive: 0.526% | –
50 | CC1CCc2noc(NC(=O)c3ccccc3[N+](=O)[O-])c2C1 (configuration not stated) | inactive: -25.3% | –

Row | SMILES | activity change, negative = inhibition | Potency
51 | CCOC(=O)C1CCCN(S(=O)(=O)c2ccc(N3CCCCS3(=O)=O)cc2)C1 (configuration not stated) | inactive: -31.7% | –
52 | Cc1cc(C(F)F)n2nc(C(=O)Nc3cc(Cl)ccc3C)nc2n1 | inactive: -6.1% | –
53 | CN1CCN(C(=O)c2ccc3c(c2)N(Cc2cccc(Cl)c2)C(=O)c2ccccc2S3(=O)=O)CC1 | inactive: -25.8% | –
54 | COc1ccccc1CNC(=O)C1CCN(S(=O)(=O)c2c(C)noc2/C=C/c2c(C)cc(C)cc2C)CC1 | inactive: -25.6% | –
55 | COc1cc(O)c2c(c1)C(=O)c1cc(C)cc(O)c1C2=O | inactive: 5.41% [at 25.2 µM] | –
56 | COc1cccc(CNC(=O)CSc2ncc3c(n2)-c2cc(Cl)ccc2N(C)S3(=O)=O)c1 | inactive: -7.89% | –
57 | Cc1coc2c(C)c3oc(=O)c(CC(=O)NCc4ccccc4)c(C)c3cc12 | inactive: -11.2% | –
58 | Cc1c(Cl)cccc1NC(=O)CN1C(=O)COc2ccc(S(=O)(=O)N3CCCCCC3)cc21 | inactive: -7.32% | –
59 | Cc1ccc(Cl)cc1-n1c(=O)c2sc3ccccc3c2n(CC(=O)NC2CCCCC2)c1=O | inactive: -15.4% | –
60 | Cc1cccc(C)c1NC(=O)c1nc(S(C)(=O)=O)ncc1N(Cc1ccc(F)cc1)Cc1ccco1 | inactive: -36.5% | –
61 | CCOC(=O)c1cnc2c(C)cc(C)cc2c1NCCc1ccc(OC)c(OC)c1 | inactive: -3.84% | –
62 | Cc1ccc2c(CC(=O)NCc3ccccc3)coc2c1C | inactive: -13.8% | –
63 | O=c1c2sc3ccccc3c2n(Cc2ccccc2Cl)c(=O)n1Cc1ccccc1 | inactive: -5.36% | –
64 | COc1ccc(NC(=O)CCCn2c(=O)c3cccn3c3ccccc32)c(OC)c1 | inactive: 22.4% | –
65 | O=C(NCCc1csc(-c2ccc(C(F)(F)F)cc2)n1)C(=O)Nc1cc(F)ccc1F | inactive: 5.8% | –
66 | CCCCN(C)CCNC(=O)C1CCCN(S(=O)(=O)c2ccc3c(c2)oc(=O)n3C)C1 (configuration not stated) | inactive: -9.21% | –
67 | CCOC(=O)c1c(C)[nH]c(CCC(=O)NCCCN2CCN(c3cc(Cl)ccc3C)CC2)c1C | inactive: -29.6% | –
68 | CCc1ccccc1NC(=O)Cn1c(=O)n(CCCS(=O)(=O)C2CCCCC2)c(=O)c2ccccc21 | inactive: -18.2% | –
69 | CCOc1ccc(C(=O)Nc2cccc(OCc3cc(=O)n4ccccc4n3)c2)cc1 | inactive: 12.7% | –
70 | Cc1ccccc1NS(=O)(=O)c1nnc(NC(=O)c2ccc(Cl)cc2)s1 | inactive: -5.61% | –
71 | CCOC(=O)c1[nH]c(C)c(CCC(=O)Nc2ccc(C(C)=O)cc2)c1C | inactive: -0.906% | –
72 | Cc1cccc(CNS(=O)(=O)c2csc(C(N)=O)c2)c1 | inactive: -39.9% | –
73 | O=C1C(c2cccc(Br)c2)N(CCc2ccccc2)C(=O)CN1C1CCCCC1 (configuration not stated) | inactive: -10.8% | –
74 | CCOc1cccc(CNCCNC(=O)c2nonc2N)c1 | inactive: 29.6% | –
75 | COc1ccc(-c2cc(C(F)(F)F)nc(SCCC(=O)Nc3ccc(OC)c(OC)c3)n2)cc1 | inactive: -29.2% | –

Row | SMILES | activity change, negative = inhibition | Potency
76 | CCN1CCC(N(Cc2ccc3c(c2)OCO3)C(=O)Nc2cc(F)ccc2F)CC1 | inactive: -9.12% | –
77 | Cc1ccc(NC(=O)c2sc3nc(-c4cccs4)ccc3c2N)cc1F | inactive: 3.64% | –
78 | CC(C)(C)NC(=O)C1CCN(c2nc3ccccc3nc2C(F)(F)F)CC1 | inactive: -7.4% | –
79 | COc1ccc(CNC(=O)CN2C(=O)CC(c3ccc(C)c(C)c3)=Nc3ccccc32)cc1 | inactive: 59.9% | –
80 | O=c1[nH]c2cc(Br)ccc2n2cccc12 | inactive: 4.6% | –
81 | O=C(O)c1ccccc1Nc1cc(Cl)ccc1C(=O)O | inactive: -4.46% [at 25.2 µM] | –
82 | CCOc1ccc(CNC(=O)CSc2nnc(C)c3c(C)n(-c4ccc(Cl)cc4)nc23)cc1 | inactive: -4.75% | –
83 | O=C(CN1C(=O)COc2ccc(S(=O)(=O)NC3CCCC3)cc21)NCc1ccc(Cl)cc1 | inactive: -14.9% | –
84 | CCN(CC)CCSc1c(C(C)C)cnc2c1c(=O)n(C)c(=O)n2C | inactive: -0.493% | –
85 | CN1CCN(C(=O)C(=O)Nc2c3c(nn2-c2ccc(Cl)cc2)CSC3)CC1 | inactive: -12.8% | –
86 | Cc1nn2c(=O)cc(COC(=O)c3cccc(NC(=O)COc4ccccc4C)c3)nc2s1 | – | active: 3.16 µM
87 | CCOCCCn1c(=N)c(C(=O)NCc2cccnc2)cc2c(=O)n3ccccc3nc21 | inactive: 0.756% | –
88 | Cc1ccc(N2C(=O)CCSC23C(=O)N(Cc2ccccc2)c2ccccc23)cc1 (configuration not stated) | inactive: 0.597% | –
89 | Cn1c(=O)c(C(=O)O)nn(-c2ccccc2)c1=O | inactive: -1.55% | –
90 | Cc1ccc(NC(=O)Nc2nnc(N3CCCC3)s2)cc1C | inactive: -8.71% | –
91 | COC(=O)c1ccc(C(=O)OC)c(NC(=O)CN(c2ccccc2)S(=O)(=O)N(C)C)c1 | inactive: -29% | –
92 | COc1cccc(CNC(=O)CSC2=Nc3ccccc3N=C(c3ccc(F)cc3)C2)c1 | inactive: -30.4% | –
93 | Cn1nnnc1SCCCNCc1ccccc1OCc1ccc(Cl)cc1 | inactive: -38.3% | –
94 | NS(=O)(=O)c1cc2c(cc1Cl)NC(CSCc1ccccc1)=NS2(=O)=O | inactive: 3.13% | –
95 | CCOC(=O)C1CCN(C(=O)Cn2nc(CC)n3c(cc4sccc43)c2=O)CC1 | – | active: 2.82 µM
96 | Cc1cc(C)c(NC(=O)Cn2c(=O)n(CCC(=O)N3CCc4ccccc4C3)c(=O)c3ccccc32)c(C)c1 | inactive: -14.2% | –
97 | Cc1c(CNC2CCCCC2)c(C(=O)O)c(C)n1Cc1ccc(Cl)cc1 | inactive: 1.07% | –
